Source: PubChem BioAssay AID686978 (National Center for Advancing Translational Sciences (NCATS), 2013)
Out of some 420,000 compounds screened, about 64,000 (15%) were called active. Inconclusive means that the source gave no clear call. Such entries were picked first, then a sample of the others. Calls come from the whole dose curve; as a rule, active = well fitted inhibition curve with a large enough effect; inconclusive = small, poorly fitted or top-dose-only effect; inactive = flat fitted curve, though single readings scatter. Potencies of inconclusive entries are left out as doubtful fits.

assay: qHTS for Inhibitors of human tyrosyl-DNA phosphodiesterase 1 (TDP1): qHTS in cells in absence of CPT; conditions: DT40 Tdp1-/- hTDP1 cells, no CPT, ATP luminescence, 48 h; series mostly up to 46.2 µM; note: nearly all actives have a fitted effect of over 55% in size
Method in brief: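 Growth kinetics read by CellTiter-Glo luminescence after ≥48 hr at 37 °C. Cells: DT40 Tdp1-/- stably carrying human TDP1, 400 per well, compound exposure in the absence of CPT (DMSO vehicle).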
Potency is the fitted concentration of half-maximal effect; tags give direction and shape of the fitted curve.

Row | Structure (SMILES) | Potency
1 | CC(Oc1ccccc1F)C(=O)NNC(=O)CCNC(=O)c1ccco1 (stereo not given) | inactive
2 | NC(=O)CC(NC(=O)Cc1ccc(Br)cc1)c1ccc(NC2CCCC2)c([N+](=O)[O-])c1 (stereo not given) | inconclusive [inhibitor, single point]
3 | CCN1C(=O)[C@H]2[C@H]3CN=C(SC)N3[C@@](Cc3ccccc3)(C(=O)OC)[C@H]2C1=O | inactive
4 | Cc1sc(NC(=O)C2=COCCO2)nc1-c1ccc(Cl)cc1 | active: 20.6 µM
5 | Cc1cc(F)ccc1-c1cc(C(=O)NCc2ccc(C(F)(F)F)cc2)[nH]n1 | inactive
6 | COc1ccc(S(=O)(=O)NCc2ccccn2)cc1NC(=O)c1ccccc1C | active: 4.61 µM
7 | Cc1ccccc1Cc1c(C)nc2nc(SCC(=O)N(C)c3ccccc3)nn2c1C | inconclusive [inhibitor, single point]
8 | CCCCCCNC(=O)N[C@@H](C(=O)NCCC[C@H]1CN2C(=NC[C@@H]2Cc2ccccc2)N1CCc1cccc(OC)c1)C(C)C | active: 4.61 µM
9 | CCOc1ccc(CN2C(=O)c3ccccc3C2C(=O)NC(C)CC)cc1OC (stereo not given) | inactive
10 | O=C(Nc1ccc(N2CCOCC2)c(Cl)c1)c1ccccc1F | inactive
11 | Cc1ccc(-n2c(=O)c3c(cnn3C)n(CC(=O)Nc3ccc(C)cc3C)c2=O)cc1 | inactive
12 | O=C1/C(=C\c2ccc(-c3ccccc3Cl)o2)SC(=S)N1CC1CCCO1 (stereo not given) | inconclusive [inhibitor, single point]
13 | CC1=C(C(=O)Nc2ccc(C)cc2C)C(c2ccc([N+](=O)[O-])cc2)n2ncc(C(=O)Nc3ccc(F)cc3)c2N1 (stereo not given) | active: 8.2 µM
14 | COc1cccc2cc(C(=O)NCc3ccco3)c(=Nc3ccc(C(=O)O)cc3)oc12 | active: 16.4 µM
15 | COc1cc2c(Nc3ccc(Br)cc3F)ncnc2cc1OCC1CCN(C)CC1 | active: 4.73 µM
16 | O=C(NN1C(=O)c2ccccc2NC12CCCCC2)c1ccccc1 | inconclusive [inhibitor, partial curve]
17 | c1ccc2c(CN3CCOCC3)c3ccccc3c(CN3CCOCC3)c2c1 | inconclusive [inhibitor, single point]
18 | O=C(CN1C(=O)C2CCCN2c2ncc(Cl)cc21)NCc1ccc2c(c1)OCO2 (stereo not given) | inconclusive [inhibitor, single point]
19 | CCCCn1c(-c2ccccc2)nnc1-c1ccccc1 | inconclusive [inhibitor, partial curve]
20 | CC1C(=O)N(Cc2cn(CCC3OCCO3)nn2)CCS(=O)(=O)N1Cc1ccc(-c2ccc(F)nc2)cc1 (stereo not given) | inconclusive [inhibitor, partial curve]
21 | COc1ccc(CN(C)C(=O)Cc2c[nH]c3ccccc23)c(OC)c1OC | inactive
22 | Cc1ccsc1C(=O)OCC(=O)c1cc(C)n(CC2CCCO2)c1C (stereo not given) | inconclusive [inhibitor, single point]
23 | CC(C)N(O)C(=O)NC(C)(C)C | inactive

Row | Structure (SMILES) | Potency
24 | Cc1cc(C(=O)Nc2ccc(N3CCCC3)c(Cl)c2)ccc1[N+](=O)[O-] | active: 18.4 µM
25 | Cc1oc(-c2ccccc2)nc1CS(=O)CC(=O)NC1CCCCCC1 (stereo not given) | inactive
26 | Cc1ccc(NC(=O)C(=S)NCc2ccco2)cc1 | inactive
27 | CCN(CC)c1ccc2cc(-c3nc(-c4cccs4)no3)c(=O)oc2c1 | inconclusive [inhibitor, partial curve]
28 | O=C1c2ccccc2C(Nc2ccc3c(c2)OCCO3)N1Cc1ccco1 (stereo not given) | active: 14.6 µM
29 | COc1ccc(NC(=O)N(C)C[C@H]2OCCCC[C@@H](C)Oc3ccc(NC(=O)c4ccccc4)cc3C(=O)N([C@H](C)CO)C[C@@H]2C)cc1 | active: 20.6 µM
30 | O=C(NCCN1CCCC1)c1ccccc1Cl | inactive
31 | Cc1ccc2c(/C=C/c3ccc(N(C)C)cc3)ccnc2c1C | inconclusive [inhibitor, single point]
32 | COc1ccc(CNC(=O)CN(c2cc(C)cc(C)c2)S(=O)(=O)c2c(C)noc2C)cc1 | inconclusive [inhibitor, single point]
33 | CC(=O)N1CCN(C(=O)c2ccc(Cl)c(S(=O)(=O)N3CCc4ccccc43)c2)CC1 | inconclusive [inhibitor, partial curve]
34 | COc1ccccc1CNC(=O)C(c1ccccc1)c1ccccc1 | inconclusive [inhibitor, single point]
35 | COC(=O)C1CCC(C)(C(=O)Nc2ccccc2)C1(C)C (stereo not given) | inconclusive [inhibitor, partial curve, poor fit]
36 | O=C(CCN1C(=O)/C(=C/C=C/c2ccccc2)SC1=S)Nc1ccccn1 | inconclusive [inhibitor, single point]
37 | CCCCN1C(=O)c2[nH]nc(-c3ccccc3O)c2C1c1ccc(OCc2ccccc2)cc1 (stereo not given) | inconclusive [inhibitor, single point]
38 | O=C(Nc1ccccc1C(=O)NCc1ccccc1)c1ccccc1Br | inconclusive [inhibitor, single point]
39 | CC1CCN(S(=O)(=O)c2ccc3c(c2)c(=O)c(C(=O)NCCc2ccccc2)cn3C)CC1 | inconclusive [inhibitor, partial curve, poor fit]
40 | COc1cccc2cc(C(=O)NCc3ccc(Cl)cc3)c(=N)oc12 | inconclusive [inhibitor, single point]
41 | CCOC(=O)N1CCN(c2cc(NCCC(=O)O)c3c4c(onc24)-c2ccccc2C3=O)CC1 | inconclusive [inhibitor, partial curve]
42 | CCc1nc2c(OCC3COc4ccccc4O3)cccn2c1N(C)C(=O)c1ccccc1F (stereo not given) | active: 20.6 µM
43 | COCCCN1C(=O)C(CC(=O)NCCCN(C)C)CC(C(=O)N2CCCCCC2)=C1C (stereo not given) | inactive
44 | COc1cccc(-c2cnc(C(O)c3ccc(C(C)(C)C)cc3)[nH]2)c1 (stereo not given) | active: 18.4 µM
45 | Cc1ccc(NC(=O)C(=Cc2ccc(C(=O)O)cc2)C(=O)Nc2ccc(C)cc2C)c(C)c1 | active: 2.91 µM
